In the supplement of paper PMC12297408:
Structures can show the parent of a compound that is named as a salt. Among all 1,300 compounds or so, about 40 (3%) showed activity. This is one part of the list.

Test system: Plasmodium falciparum NF54/iGP1_RE9H ulg8 stage V gametocytes
Assay: gametocyte viability (luciferase signal relative to DMSO control) (% of DMSO control); higher = less gametocytocidal activity, active = 50 or less
Conditions: exposure time: 72 h
Method in brief: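 Compounds from 10 mM DMSO stocks were spotted at nanolitre scale into 96-well plates, and day-12 stage V NF54/iGP1_RE9Hulg8 gametocytes (~2.5% gametocytemia, 3% hematocrit; medium with 0.5% Albumax II) were added to reach 10 µM or 1 µM, one well per concentration. The plates were kept at 37 °C for 72 h. Luminescence was then read on an IVIS Lumina II after mixing 90 µl of culture with 10 µl D-luciferin (30 mg/ml). Viability values are relative to the plate's mean DMSO vehicle signal.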

SMILES | gametocyte viability (concentration: 1 µM) | gametocyte viability (concentration: 10 µM)
CC[C@@H](CO)NCCN[C@@H](CC)CO [Ethambutol dihydrochloride] | inactive: 84.7 | inactive: 83.4
COCCc1ccc(OCC(O)CNC(C)C)cc1 (racemic) [Metoprolol-(+,-) (+)-tartrate salt] | inactive: 94 | inactive: 94
C=CCSCC1Nc2cc(Cl)c(S(N)(=O)=O)cc2S(=O)(=O)N1 (stereo not drawn) [Althiazide] | inactive: 97.5 | inactive: 91.5
CC(C(=O)O)c1ccc(C(=O)c2ccccc2)s1 (stereo not drawn) [Tiaprofenic acid] | inactive: 87.5 | inactive: 85.6
CC(=O)N(CC(O)CN(C(C)=O)c1c(I)c(C(=O)NCC(O)CO)c(I)c(C(=O)NCC(O)CO)c1I)c1c(I)c(C(=O)NCC(O)CO)c(I)c(C(=O)NCC(O)CO)c1I (stereo not drawn) [Iodixanol] | inactive: 89.4 | inactive: 89.2
c1ccc(CN(CC2=NCCN2)c2ccccc2)cc1 [Antazoline hydrochloride] | inactive: 95.1 | inactive: 90.5
CN(C)CC/C=C1/c2ccccc2COc2ccc(CC(=O)O)cc21 [Olopatadine hydrochloride] | inactive: 77.9 | inactive: 86.5
Nc1nc(NC2CC2)c2ncn([C@H]3C=C[C@@H](CO)C3)c2n1 [Abacavir Sulfate] | inactive: 81.6 | inactive: 75.3
O=C(COc1ccc(Cl)cc1)N1CCN(Cc2ccc3c(c2)OCO3)CC1 [Fipexide hydrochloride] | inactive: 83.4 | inactive: 78.5
CNC(C)CCC=C(C)C (stereo not drawn) [Isometheptene mucate] | inactive: 87.9 | inactive: 88.6
CN(Cc1cnc2nc(N)nc(N)c2n1)c1ccc(C(=O)N[C@@H](CCC(=O)O)C(=O)O)cc1 (racemic) [Amethopterin (R,S)] | inactive: 80.3 | inactive: 83.6
CN(Cc1cnc2nc(N)nc(N)c2n1)c1ccc(C(=O)N[C@@H](CCC(=O)O)C(=O)O)cc1 [Methotrexate] | inactive: 91.4 | inactive: 87.9
CCN(CC)CCNc1ccc(CO)c2sc3ccccc3c(=O)c12 [Hycanthone] | inactive: 81.1 | inactive: 84.5
Cc1ccsc1/C=C/C1=NCCCN1C [Morantel tartrate] | inactive: 89.3 | inactive: 90.8
C[C@]12CC[C@@H]3c4ccc(OS(=O)(=O)O)cc4CC[C@H]3[C@@H]1CCC2=O [Estropipate] | inactive: 95.5 | inactive: 88.3
COc1cccc(OC)c1C(=O)N[C@@H]1C(=O)N2[C@@H]1SC(C)(C)[C@@H]2C(=O)O [Methicillin sodium] | inactive: 83.4 | inactive: 83.1
Cc1ccc(S(=O)(=O)NC(=O)NN2CCCCCC2)cc1 [Tolazamide] | inactive: 94.6 | inactive: 97.4
CCN(CC)CCOC(=O)C(c1ccccc1)c1ccccc1 [Adiphenine hydrochloride] | inactive: 87.9 | inactive: 90
OC(CCCN1CCCCC1)(c1ccccc1)c1ccccc1 [Diphenidol hydrochloride] | inactive: 88.8 | inactive: 89.7
CCOC(=O)c1ccc(N)cc1 [Benzocaine] | inactive: 86.2 | inactive: 81.3
COc1cc(-c2ccc(=O)[nH]n2)ccc1OC(F)F [Zardaverine] | inactive: 101 | inactive: 104
CCCCC1(COC(=O)CCC(=O)O)C(=O)N(c2ccccc2)N(c2ccccc2)C1=O [Suxibuzone] | inactive: 79.1 | inactive: 85.9
COc1cc(NC(C)CCCN)c2ncccc2c1 (stereo not drawn) [Primaquine diphosphate] | inactive: 83.1 | active: 35.1
CCCCNc1c(C(=O)OCC)c(C)nc2c1cnn2CC [Tracazolate hydrochloride] | inactive: 88.5 | inactive: 76.3
CSc1ccc2c(c1)N(CCC1CCCCN1C)c1ccccc1S2 (stereo not drawn) [Thioridazine hydrochloride] | inactive: 87.7 | active: 30.1
CC1=C(/C=C/C(C)=C/C=C/C(C)=C\C(=O)O)C(C)(C)CCC1 [Isotretinoin] | inactive: 83.9 | inactive: 59.7
CC/C(=C(/CC)c1ccc(O)cc1)c1ccc(O)cc1 [Diethylstilbestrol] | inactive: 88.9 | inactive: 90.2
Cc1cc(-c2ccccc2)nnc1NCCN1CCOCC1 [Minaprine dihydrochloride] | inactive: 81.2 | inactive: 83.5
NC(N)=Nc1nc(CSCC/C(N)=N/S(N)(=O)=O)cs1 [Famotidine] | inactive: 84.4 | inactive: 82.5
